This is one part of the list.
Legend:
[1] = test system: HSkMC (human skeletal muscle cells); assay: cytotoxicity call (relative viability < 0.9); conditions: 10 µM
[2] = test system: HepG2; assay: cytotoxicity call (relative viability < 0.9); conditions: 10 µM
[3] = test system: S. aureus RN4220; assay: growth inhibition call (relative growth <= 0.2); conditions: 50 µM

C[C@@H]1CCCCO[C@@H](CN(C)C(=O)Nc2ccc3c(c2)OCO3)[C@H](C)CN([C@@H](C)CO)C(=O)c2cc(NS(=O)(=O)c3ccccc3)ccc2O1
inactive: cytotoxicity call [1] | cytotoxicity call [2] | growth inhibition call [3]

C[C@H](CO)N1C[C@H](C)[C@@H](CN(C)S(=O)(=O)c2ccccc2)Oc2ccc(NS(=O)(=O)c3cn(C)cn3)cc2C1=O
inactive: cytotoxicity call [1] | cytotoxicity call [2] | growth inhibition call [3]

C[C@@H]1CCCCO[C@H](CN(C)C(=O)NC2CCCCC2)[C@@H](C)CN([C@H](C)CO)C(=O)c2cc(NS(=O)(=O)c3ccccc3)ccc2O1
inactive: cytotoxicity call [1] | cytotoxicity call [2] | growth inhibition call [3]

COc1ccccc1-c1ccc2c(c1)O[C@H](CN(C)C(=O)c1ccncc1)[C@H](C)CN([C@@H](C)CO)S2(=O)=O
inactive: cytotoxicity call [1] | cytotoxicity call [2] | growth inhibition call [3]

Cc1noc(C)c1NC(=O)N(C)C[C@H]1Oc2ccc(NS(C)(=O)=O)cc2CC(=O)N([C@H](C)CO)C[C@H]1C
inactive: cytotoxicity call [1] | cytotoxicity call [2] | growth inhibition call [3]

Cc1noc(C)c1S(=O)(=O)Nc1ccc2c(c1)C(=O)N([C@@H](C)CO)C[C@@H](C)[C@H](CN(C)C(=O)Nc1cccc3ccccc13)OCCCC[C@@H](C)O2
inactive: cytotoxicity call [1] | cytotoxicity call [2] | growth inhibition call [3]

CCCNC(=O)N1C[C@@H](C)[C@@H](OC)CN(C)C(=O)c2ccc(NS(=O)(=O)CC(F)(F)F)cc2OC[C@H]1C
inactive: cytotoxicity call [1] | cytotoxicity call [2] | growth inhibition call [3]

C[C@H]1CN([C@@H](C)CO)C(=O)Cc2cc(NS(=O)(=O)c3cccs3)ccc2O[C@@H]1CN(C)S(=O)(=O)c1cccs1
inactive: cytotoxicity call [1] | cytotoxicity call [2] | growth inhibition call [3]

Reference: the antibiotic and cytotoxicity screens of Wong et al. (2023)
